Assay in all cases: NCI-60 cell line screen, 48 h
The subject of experiment [1] is COLO 205 colon.
Experiment [2] has as its system SK-MEL-2 melanoma.
Experiment [3] has as its system IGROV1 ovarian.
The test system of experiment [4] is HCC-2998 colon.
Experiment [5] relates to RPMI-8226 leukemia.
In experiment [6] the test system is NCI/ADR-RES ovarian.
The subject of experiment [7] is BT-549 breast.
Experiment [8] relates to NCI-H460 lung.
In experiment [9] the test system is KM12 colon.
Experiment [10] deals with OVCAR-5 ovarian.
Experiment [11] concerns SNB-75 CNS.
Experiment [12] relates to TK-10 renal.
Experiment [13] relates to NCI-H23 lung.
Experiment [14] concerns SK-OV-3 ovarian.

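Compound exposure: 48 hours, 5 concentrations, 96-well plates. Abbreviation: GI50, concentration required for 50% inhibition of growth.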 Some entries of the source have several records that differ or are many. This list holds those alone. An entry can have further records. The tests behind the records often covered other concentration ranges, not given here; a value can be the end of its range.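 TGI marks complete inhibition of growth.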 Where only a bound is given, the exact number is not on record here.

Turning to `CCC1=CC2CN(C1)Cc1c([nH]c3ccccc13)[C@@](C(=O)OC)(c1cc3c(cc1OC)N(C)[C@H]1[C@@](O)(C(=O)OC)[C@H](OC(C)=O)[C@]4(CC)C=CCN5CC[C@]31[C@@H]54)C2` (some centres not stated), the TGI in [1] was 367 nM and 19.8 nM; in [3], 353 nM and > 100 µM; in experiment [4] it was 11.8 µM and 86.7 nM; in experiment [5], 5.28 µM and > 100 µM; in experiment [6], 9.04 µM and > 100 µM; in experiment [7] it was 413 nM and 19.1 µM. For the same compound, the TGI in experiment [8] was 8.09 µM and 446 nM. Also, the GI50 in experiment [2] was < 5 nM and 23.6 µM; in experiment [3], < 5 nM and 342 nM.

On to `C=C(CN(C)C)C(=O)c1ccccc1[N+](=O)[O-]`, for which the TGI in experiment [5] is 5.91 µM [1 test] and > 68.8 µM [mean of 2 tests].

Turning to `CC(C)(C)c1cc(C=C(C#N)C#N)cc(C(C)(C)C)c1O`, the TGI in [9] is 73.1 µM and 6.21 µM; in experiment [10] it was 32.2 µM and > 354 µM; in experiment [11], 793 nM and 28.3 µM; in experiment [5] it was 674 nM and 11.6 µM; in experiment [12], 923 nM and 197 µM; in experiment [13], 825 nM and 9.89 µM. Besides, the TGI in experiment [14] is 831 nM [1 test] and 15.8 µM [mean of 2 tests].

Values taken from PubChem BioAssay (NCI).
